Measured values from patent publication US20230279123A1 (REGENECORE BIOTECH, published 2023).

How the values were obtained:
[1] = target: T1, IL-5 (human, UniProt P05113 20-134); test: BLI (Octet 96), method of Example 4
T1 construct: unlabelled in the proliferation assay and as BLI antigen. 'Human' is printed only for the proliferation assay; also called human IL-5 protein; human recombinant IL-5 protein

[2] = target: T2, IL-4Rα (receptor protein / antigen) (UniProt P24394 26-232, limits assumed); test: BLI (Octet 96), method of Example 4
T2 construct: also called IL-4 receptor subunit α

[3] = target: T1, IL-5; test: BLI (Octet 96), method of Example 4, antibody on sensor, antigen in solution
T1 sequence (P05113 20-134 limits assumed): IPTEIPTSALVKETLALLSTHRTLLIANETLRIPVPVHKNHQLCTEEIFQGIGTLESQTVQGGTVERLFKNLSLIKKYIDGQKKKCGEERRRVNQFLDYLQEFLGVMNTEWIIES
Method: (§1) Assay steps: Octet 96 and Data Acquisition software in the supporting computer were run. The bottom and sides of an acquisition probe were cleaned using a lens tissue with an appropriate amount of 75% ethanol, and the instrument was preheated for 15 min or more. Sensor pre-wetting: before the assay, the Sensor was soaked in the SD buffer for 10 min or more for later use. Then, the machine procedure was set according to: baseline→antibody→baseline→antigen binding→antigen dissociation→sensor regeneration for assay operation.
(§2) Affinity kinetic assay for the humanized bispecific antibody was carried out by the assay method shown in example 4, and the assay results are shown in Table 11.

[4] = target: T2, IL-4Rα (receptor protein / antigen); test: as above
Method: as §1, §2

[5] = target: T1, IL-5; test: cell-based or functional assay
[6] = target: T1, IL-5; test: competition ELISA: IL-5R coated, biotin-IL-5 at EC80 mixed with antibody dilutions, OD450
Method: (§3) (3) A biotin-conjugated ligand protein (IL-4 or IL-5) was diluted to 2 times the EC80 concentration, and the antibody was diluted to 2 times the initial concentration, and 5-fold gradient dilution was carried out. The ligand protein, and the diluted antibody (dupilumab, 4E9V10-2B3V2, 4E9-V0 or 2B3 (SEQ ID NO. 25)) and hIgG respectively, were transferred at 1:1 into a new dispensing plate and mixed well.
(§4) (7) A stopping solution was added, and the values of samples in different wells were immediately read at the wavelength of 450 nm with a microplate reader and recorded as OD450. EC50 was calculated by plotting. 4E9-V0, non-humanized anti-[…] single domain antibody 2B3, dupilumab, reslizumab, and hIgG were used as controls, and the results are shown in Tables 6 and 7 and FIGS. 5 and 6, respectively.

[7] = target: T3, IL-4Rα (on TF-1 cells) (UniProt P24394 26-825, limits assumed); test: cell-based or functional assay
[8] = target: T3, IL-4Rα (on TF-1 cells); test: cell-based or functional assay; remark: listed apart in the source
[9] = target: T1, IL-5; test: BLI (Octet 96), method of Example 4; remark: listed apart in the source
Method: as §1, §2

[10] = target: T2, IL-4Rα (receptor protein / antigen); test: BLI (Octet 96), method of Example 4; remark: listed apart in the source
Method: as §1, §2

[11] = target: T2, IL-4Rα (receptor protein / antigen); test: competition ELISA: IL-4Rα coated, biotin-IL-4 at EC80 mixed with antibody dilutions, OD450
Method: as §3, §4

B1: anti-IL-4Rα/IL-5 protein bispecific single domain antibody 4E9V10-2B3V2 (bispecific antibody, human IgG4)
chain: QVQLVESGGGLVQPGGSLRLSCAASGDFYCMAWFRQAPGKEREAVAAIRSGGRSTYYADSVKGRFTISRDNSKNTLYLQMNSLKAEDTAVYYCAVGVDGNCRNYWGQGTLVTVSS[gap - human IgG4 Fc]ESKYGPPCPSCPQVQLVESGGGSVQAGGSLRLSCAASGNTFSFSTYCMGWFRQSPGKEREGSLATIYDASTAYAGSVKGRFTISRDNSKNILYLQMNNLRAEDTAVYYCAAARYCMFWSHPSYWGQGTQVTVSS
notes: Single polypeptide VHH-Fc-VHH; also called IL-4Rα/IL-5 bispecific antibody; humanized bispecific antibody
Kd [1]: < 1 nM
Kd [2]: < 1 nM
Kd [3]: 0.663 nM
Kd [4]: 0.233 nM
EC50 of neutralizing IL-5-induced TF-1 cell proliferation [5]: 0.175 nM
EC50 [6]: 3.61 nM
EC50 of neutralizing IL-13-induced TF-1 cell proliferation [7]: 0.215 nM
EC50 of neutralizing IL-4-induced TF-1 cell proliferation [8]: 0.262 nM
koff [9]: 0.000141 s⁻¹
kon [9]: 213000 M⁻¹ s⁻¹
koff [10]: 4.6e-05 s⁻¹
kon [10]: 198000 M⁻¹ s⁻¹
EC50 [11]: 3.65 nM
